# Some of the results follow. The list includes weakly bound sequences.
# Target: MaxL homodimer (UniProt P61244)
# Experiment: universal protein-binding microarray (PBM)
# Details: PBS-based mixture, 10 nM His-tagged protein dimer, 2% milk, 200 ng/uL BSA, 50 ng/uL salmon testes DNA, 0.02% TX-100; detection with Alexa 488 anti-His …; high values mean tight binding; most listed sequences are background and not binding sites; double strand, one strand shown
# UniProt P61244, sequence (P61244 whole entry): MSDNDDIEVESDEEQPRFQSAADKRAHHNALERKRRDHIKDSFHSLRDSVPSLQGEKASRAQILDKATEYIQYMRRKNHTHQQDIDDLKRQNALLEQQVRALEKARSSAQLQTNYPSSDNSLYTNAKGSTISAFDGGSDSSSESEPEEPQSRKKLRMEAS
row,Sequence,binding signal (normalized occupancy)
1,AATCAGAA,0.0794
2,AAACTGGG,0.0682
3,CACTCGGG,0.0673
4,GCAGCCAC,0.0737
5,CCATCGGG,0.0711
6,CTCGCGCC,0.0694
7,ACCATAAA,0.0787
8,GCCTTGCC,0.0714
9,GACCACCC,0.0841
10,CACTACTG,0.0818
11,ACGATGAG,0.0821
12,CAGACGGC,0.0673
13,GAGAAAGC,0.0684
14,ATTAAATG,0.0815
15,CTGCCAAG,0.0757
16,CTAAAATA,0.0829
17,GGACGAAC,0.07
18,ATACGGAG,0.073
19,ATCTATAC,0.0819
20,ACTGGGGG,0.073
21,ACCAAACG,0.0712
22,CTGACATC,0.0791
23,AGTGCATG,0.0988
24,AGCTTCTA,0.0709
25,TGCCAGAA,0.0775

row,Sequence,binding signal (normalized occupancy)
1,CGAAAACC,0.0763
2,GTCCTTAA,0.0744
3,CCATCGCG,0.0734
4,ACAACAGC,0.0725
5,GATTAAAA,0.0743
6,AAATTGAG,0.0717
7,ACTTTTCC,0.0753
8,AATCAGCG,0.0745
9,CCACCGGG,0.0769
10,AGCGAGAG,0.0672
11,CTTCGAAC,0.0686
12,ACTATAGA,0.0769
13,AGCTTGAA,0.0674
14,GAGGTATC,0.0783
15,GTCAGGGA,0.0758
16,CTATAAAC,0.0789
17,ATAGTCTC,0.0756
18,AGTACCTC,0.0751
19,TCAGGTAA,0.0795
20,AGTAGGAC,0.0695
21,TAGGCTGA,0.0736
22,AGCTTGCA,0.0706
23,GGCTAGGA,0.0751
24,CGCATTGA,0.0827
25,ACTTAGTG,0.0757

row,Sequence,binding signal (normalized occupancy)
1,AGCCGGCT,0.0646
2,GACTGCAA,0.0713
3,TCAAACAA,0.0729
4,ATTATGGA,0.0819
5,ATCAGGGA,0.0797
6,CAGGGAAA,0.0787
7,CATACCGC,0.0785
8,ACACAGAC,0.066
9,AAGGAAAT,0.0758
10,GCAAACAA,0.0743
11,AGGCGTCG,0.0733
12,GCACACCA,0.0833
13,TGGTCACA,0.0774
14,ATGCCATA,0.0896
15,AAAGTATG,0.0812
16,TCAGGACA,0.0701
17,AAGTTATA,0.0801
18,ACCTAGAT,0.0775
19,ATCACAAT,0.0804
20,GGACAGCA,0.0752
21,GCCAACCA,0.0739
22,GCTCACAA,0.0762
23,ATCTACAT,0.0805
24,ACGTTTTG,0.0854
25,CATTGTTC,0.0759

row,Sequence,binding signal (normalized occupancy)
1,ATCAGCGC,0.0713
2,CGACGCGC,0.0703
3,CGAGCTAA,0.0651
4,AAGATTGC,0.0705
5,GCCCTGGA,0.0665
6,GGAGGTAA,0.0778
7,CGGGCCTA,0.0655
8,CGTCATTA,0.0727
9,AAAGATAC,0.076
10,GTACGCAC,0.0758
11,ACTATTAG,0.0773
12,ATCGTAAA,0.0783
13,GCAAGAAC,0.0722
14,ATGAAAAC,0.0752
15,CGCCTTGA,0.0753
16,ACTAGCAT,0.0816
17,AAACTAAA,0.0726
18,AGATAGCT,0.0718
19,AGTATACA,0.077
20,AGACTGCC,0.0681
21,CGTTCAAA,0.074
22,AGGAACTA,0.0735
23,ATGCGCAT,0.102
24,AGAATTGA,0.0733
25,CTGCATTA,0.0722

row,Sequence,binding signal (normalized occupancy)
1,GTCTATTA,0.0784
2,CCGCCCCA,0.0757
3,AAGGTCCT,0.0739
4,ACGACGCT,0.0756
5,TAGCAAGA,0.0771
6,AACACGGC,0.069
7,GGTGCATA,0.0776
8,ATATTTCG,0.072
9,CTAGCAAA,0.0723
10,ATACTCCC,0.0785
11,ACGATACT,0.0795
12,TCCTAGAA,0.0733
13,CGTTTTCA,0.0841
14,TACATGAA,0.0793
15,CAATTTAC,0.0751
16,CCACCTGC,0.0984
17,AGTGGCCC,0.0692
18,ATGGTTTC,0.0765
19,GCGGAAAC,0.0684
20,GTCGAAAA,0.0717
21,CTGAGTGC,0.0731
22,ATACGTAG,0.0785
23,GGCTAGAC,0.0679
24,ATACTAGA,0.0749
25,AACACAGG,0.0791

row,Sequence,binding signal (normalized occupancy)
1,TAAAGCTA,0.0691
2,CCCTAGGC,0.0666
3,AAGCTGAG,0.0726
4,TAGGGTAA,0.0767
5,AACGATGA,0.0771
6,ACGTTGAT,0.0875
7,GGCAAACC,0.0696
8,AGTGGCTC,0.0728
9,AAAGCTGT,0.067
10,CCACCCCA,0.0887
11,CAGACGTA,0.0724
12,GCGATTCC,0.0814
13,AGCGACAC,0.0794
14,CAATCGCA,0.0778
15,TCCGAAGA,0.0666
16,GCGGCGAA,0.0666
17,TCTACACA,0.0874
18,CCATTGTA,0.0816
19,CTAACGTC,0.0737
20,ACTAATAT,0.0834
21,CAAGTCCA,0.0739
22,CAAGGTAG,0.0815
23,CCTGCCAG,0.0714
24,CGCCCGCG,0.0691
25,AGTCCGAC,0.0731

row,Sequence,binding signal (normalized occupancy)
1,ACGGCGCG,0.0694
2,CCTTTTCC,0.0757
3,ACACTCTG,0.0741
4,ACTGCCCT,0.0694
5,CAAGGACG,0.0685
6,GCCAGTGA,0.0707
7,GTCGATCA,0.0788
8,AGTGACAA,0.0746
9,GCTCGCAC,0.0715
10,AGCACGTG,1
11,CGGGCTTA,0.0706
12,ATTCGTCG,0.0701
13,AACGTTAT,0.0845
14,GAAGTCGA,0.0711
15,AATTGCGT,0.074
16,AGTTGGGC,0.0684
17,AGAACATC,0.0752
18,CAATTCTA,0.0752
19,CCCCACGA,0.0848
20,AAAAGTCT,0.0708
21,TACGGACA,0.0789
22,CTTGTAGA,0.0769
